Results: PMC7819943, “Rice protein-binding microarrays: a tool to detect cis-acting elements near promoter regions in rice”
The list shows a part of the results.

molecular target: T1, OsWOX13 (Oryza sativa, UniProt Q5QMM3 1-267); experiment: protein-binding microarray (RPBM); PBS, 2% BSA, 51.3 ng/ul salmon testes DNA, 50 uM zinc acetate, 200 nM TF, 25 C, 1 h; high values mean tight binding; conditions: protein: recombinant; tags: N-terminal polyhistidine and DsRed monomer fusion (pET32a); label: CyDye5-dUTP incorporated in the synthesized complementary strand; 3' TTTTT single-stranded linker to array surface; dsDNA, one strand shown
T1 sequence: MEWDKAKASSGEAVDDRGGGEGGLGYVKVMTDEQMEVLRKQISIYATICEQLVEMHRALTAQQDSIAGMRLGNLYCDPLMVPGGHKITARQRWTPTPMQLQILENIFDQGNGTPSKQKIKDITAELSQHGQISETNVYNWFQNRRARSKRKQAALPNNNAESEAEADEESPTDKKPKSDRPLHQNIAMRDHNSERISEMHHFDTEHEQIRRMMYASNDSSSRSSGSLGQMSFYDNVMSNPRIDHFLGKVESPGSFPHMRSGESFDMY
Summary of the method: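 Transcription factors, each fused N-terminally to a polyhistidine tag and DsRed, were expressed in E. coli BL21-CodonPlus and purified on Ni–NTA. A custom Agilent array was made double-stranded by primer extension with Cy5-dUTP and blocked with 2% BSA. It was incubated with 200 nM protein in PBS, 2% BSA, salmon testes DNA and 50 µM zinc acetate at 25 °C for 1 h, then washed. The binding signal is per-feature fluorescence intensity (arbitrary units) read on an Axon 4000B scanner.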

Question: For “AATGATAACACATGATTAATACTTTATGCGTGACTTGTCTCGGAGTCACCTAGTGCAG”, which binding signal is on record?
Answer: 17400 fluorescence intensity (a.u.)

Question: How did the binding signal turn out when “GGATATTTGGATAATTATCGAATCTAAAAGTGGCAAATATCGGAGTCACCTAGTGCAG” was run?
Answer: 5840 fluorescence intensity (a.u.)

Question: Which binding signal does the source give for “ATTAATCTATGATTTGCTACAGTGATGCTACAGTATTCATCGGAGTCACCTAGTGCAG” here?
Answer: 13500 fluorescence intensity (a.u.)

Question: “GTATTAATCATGTTTTATCATCTAACAACAATGAAAATACCGGAGTCACCTAGTGCAG” was tested. Which binding signal did it give?
Answer: 4830 fluorescence intensity (a.u.)

Question: How did the binding signal turn out when “AAAATTGGATATATCCTTTCCTTCACCCAGTATTCAAGTTCGGAGTCACCTAGTGCAG” was run?
Answer: 3350 fluorescence intensity (a.u.)

Question: How did the binding signal turn out when “CCGCTTCATCCGCCATGATTGCTGCAACTACTTAGGGTTACGGAGTCACCTAGTGCAG” was run?
Answer: 6670 fluorescence intensity (a.u.)

Question: “TTGTTAATCATGCAATTATGATAAATTTACAGCTATATGTCGGAGTCACCTAGTGCAG” was tested. Which binding signal did it give?
Answer: 17700 fluorescence intensity (a.u.)

Question: For “CGCCCTTTAATTTTATGCTTTTGAATATGGAATCAGAAGGCGGAGTCACCTAGTGCAG”, which binding signal is on record?
Answer: 3680 fluorescence intensity (a.u.)

Question: Which binding signal does the source give for “AACTAAACAGCTTCTTTAATTTGAAAGCAAGCAAGGAGAGCGGAGTCACCTAGTGCAG” here?
Answer: 12300 fluorescence intensity (a.u.)

Question: “ATTATATATTTAATAAAATTAATTTGGTGTTGTATATTTACGGAGTCACCTAGTGCAG” was tested. Which binding signal did it give?
Answer: 8780 fluorescence intensity (a.u.)

Question: How did the binding signal turn out when “TATAATATATGATTTCTGATTTTGTTTTACCATTATTTTGCGGAGTCACCTAGTGCAG” was run?
Answer: 4940 fluorescence intensity (a.u.)

Question: Which binding signal does the source give for “AGAGATAATTTGAACCATATATTAATCATCTAAGGACTAACGGAGTCACCTAGTGCAG” here?
Answer: 11200 fluorescence intensity (a.u.)

Question: Which binding signal does the source give for “CTAGCTGATTATATATACTCCCTCCGTCCCTAAATATTCGCGGAGTCACCTAGTGCAG” here?
Answer: 8380 fluorescence intensity (a.u.)

Question: For “AATTAATCATGGAGAATTTGATAAAATTAGATCCAACCATCGGAGTCACCTAGTGCAG”, which binding signal is on record?
Answer: 13600 fluorescence intensity (a.u.)

Question: “CATATGACTGTCAACGCCGTAAATATATCTGTAATATTACCGGAGTCACCTAGTGCAG” was tested. Which binding signal did it give?
Answer: 6840 fluorescence intensity (a.u.)

Question: Which binding signal does the source give for “AGCTAATTAACAGCTTAATCACTTGATAAACAACTCACTCCGGAGTCACCTAGTGCAG” here?
Answer: 51700 fluorescence intensity (a.u.)

Question: For “GCGGCAATCATCTAACCGTCCATCCCGTGATCGAGCGCATCGGAGTCACCTAGTGCAG”, which binding signal is on record?
Answer: 8920 fluorescence intensity (a.u.)

Question: With “TTAATTGTTGCCGATAATAGCCATGGTTCCCTTGCCATTTCGGAGTCACCTAGTGCAG” as the sequence, how does the binding signal read?
Answer: 6180 fluorescence intensity (a.u.)

Question: With “TCAAATCATAGCATAATTAAGTTTAAAAGATTCGTCTCGCCGGAGTCACCTAGTGCAG” as the sequence, how does the binding signal read?
Answer: 11600 fluorescence intensity (a.u.)

Question: Which binding signal does the source give for “ATAAATAAATTGGAGCTAGTAGTAGGCTATACTATTAAACCGGAGTCACCTAGTGCAG” here?
Answer: 20000 fluorescence intensity (a.u.)

Question: “CGTCAATCACACAGATTAGGTCAACACCGCCACGTCAACACGGAGTCACCTAGTGCAG” was tested. Which binding signal did it give?
Answer: 22900 fluorescence intensity (a.u.)

Question: For “ACAATCAAATTTAAATGATTAGCCACATACAGAATCAAATCGGAGTCACCTAGTGCAG”, which binding signal is on record?
Answer: 21500 fluorescence intensity (a.u.)

Question: With “AGGAAAATGTTAATTTGTCAGCAAGTGCATACTGGGTGCCCGGAGTCACCTAGTGCAG” as the sequence, how does the binding signal read?
Answer: 11200 fluorescence intensity (a.u.)
